# Some of the results follow.
# Assays:
# Experiment in all cases: glycan array binding signal (z-score within array); higher = stronger binding
# Settings in all cases: glycan notation: IUPAC condensed, linker removed
# [1] = molecular target: Neu5Ac(a2-8)Neu5Ac
# How it was run: (§1)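 Columns mapping to the same glycan were averaged after glycan names were converted to IUPAC-condensed notation. The data come from 3228 arrays in the Consortium for Functional Glycomics database, limited to those with an available protein sequence. Binding is reported as a within-array Z-score averaged across arrays of one protein sequence and across linkers.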
# [2] = molecular target: Neu5Ac(a2-8)Neu5Ac(a2-3)Gal(b1-3)GalNAc(b1-4)[Neu5Ac(a2-3)]Gal(b1-4)Glc
# How it was run: as §1
# [3] = molecular target: Neu5Ac(a2-8)Neu5Ac(a2-3)Gal(b1-3)GalNAc(b1-4)[Neu5Ac(a2-8)Neu5Ac(a2-3)]Gal(b1-4)Glc
# How it was run: as §1
# [4] = molecular target: Neu5Ac(a2-8)Neu5Ac(a2-3)Gal(b1-4)Glc
# How it was run: as §1
# [5] = molecular target: Neu5Ac(a2-8)Neu5Ac(a2-3)Gal(b1-4)GlcNAc
# How it was run: as §1
# [6] = molecular target: Neu5Ac(a2-8)Neu5Ac(a2-3)[Gal(b1-3)GalNAc(b1-4)]Gal(b1-4)Glc
# How it was run: as §1
# [7] = molecular target: Neu5Ac(a2-8)Neu5Ac(a2-3)[GalNAc(b1-4)]Gal(b1-4)Glc
# How it was run: as §1
# [8] = molecular target: Neu5Ac(a2-8)Neu5Ac(a2-8)Neu5Ac
# How it was run: as §1
# [9] = molecular target: Neu5Ac(a2-8)Neu5Ac(a2-8)Neu5Ac(a2-3)Gal(b1-4)Glc
# How it was run: as §1
# [10] = molecular target: Neu5Ac(a2-8)Neu5Ac(a2-8)Neu5Ac(a2-3)[Gal(b1-3)GalNAc(b1-4)]Gal(b1-4)Glc
# How it was run: as §1
# [11] = molecular target: Neu5Ac(a2-8)Neu5Ac(a2-8)Neu5Ac(a2-3)[GalNAc(b1-4)]Gal(b1-4)Glc
# How it was run: as §1
# [12] = molecular target: Neu5Ac(a2-8)Neu5Ac(a2-8)Neu5Ac(a2-8)Neu5Ac(a2-3)[GalNAc(b1-4)]Gal(b1-4)Glc
# How it was run: as §1
# [13] = molecular target: Neu5Ac(a2-8)Neu5Gc(a2-3)Gal(b1-4)GlcNAc
# How it was run: as §1
# [14] = molecular target: Neu5Ac(b2-6)Gal(b1-4)GlcNAc
# How it was run: as §1
# [15] = molecular target: Neu5Ac(b2-6)GalNAc
# How it was run: as §1
# [16] = molecular target: Neu5Ac9Ac(a2-3)Gal(b1-3)GlcNAc
# How it was run: as §1
# [17] = molecular target: Neu5Ac9Ac(a2-3)Gal(b1-4)GlcNAc
# How it was run: as §1
# [18] = molecular target: Neu5Ac9Ac(a2-6)Gal(b1-4)GlcNAc
# How it was run: as §1
# [19] = molecular target: Neu5Gc(a2-3)Gal(b1-3)GlcNAc
# How it was run: as §1
# [20] = molecular target: Neu5Gc(a2-3)Gal(b1-3)[Fuc(a1-4)]GlcNAc
# How it was run: as §1
# [21] = molecular target: Neu5Gc(a2-3)Gal(b1-4)Glc
# How it was run: as §1
# [22] = molecular target: Neu5Gc(a2-3)Gal(b1-4)GlcNAc
# How it was run: as §1
# [23] = molecular target: Neu5Gc(a2-3)Gal(b1-4)GlcNAc(b1-3)Gal(b1-4)GlcNAc(b1-2)Man(a1-3)[Neu5Gc(a2-3)Gal(b1-4)GlcNAc(b1-3)Gal(b1-4)GlcNAc(b1-2)Man(a1-6)]Man(b1-4)GlcNAc(b1-4)GlcNAc
# How it was run: as §1
# [24] = molecular target: Neu5Gc(a2-3)Gal(b1-4)[Fuc(a1-3)]GlcNAc
# How it was run: as §1
# [25] = molecular target: Neu5Gc(a2-6)Gal(b1-4)GlcNAc
# How it was run: as §1
# [26] = molecular target: Neu5Gc(a2-6)GalNAc
# How it was run: as §1
# [27] = molecular target: Neu5Gc(a2-8)Neu5Ac(a2-3)Gal(b1-4)GlcNAc
# How it was run: as §1
# [28] = molecular target: Neu5Gc(a2-8)Neu5Gc(a2-3)Gal(b1-4)GlcNAc
# How it was run: as §1
# [29] = molecular target: Neu5Gc(a2-8)Neu5Gc(a2-3)Gal(b1-4)GlcNAc(b1-3)Gal(b1-4)GlcNAc
# How it was run: as §1
# [30] = molecular target: Neu5Gc(a2-8)Neu5Gc(a2-6)Gal(b1-4)GlcNAc
# How it was run: as §1
# [31] = molecular target: Neu5Gc(b2-6)Gal(b1-4)GlcNAc
# How it was run: as §1
binder,measurement,setting,value
GS7807E-bfa-538-23-538 (Bacteroides fragilis) (protein) TDSFESFNTNEAGFDNDSKKQDFNYYGIPLGIIQQGIYFNYDWGSGKNWPFQTMQNLGADLFSGYVHDFNPFNEGKNNSTYYMMDGWNGSTWDNTYGYIMPEVQKSETINEKDNIGFFGITKILKVELMHRLSDLYGPIVYTQFGSKTGSTPDTQQEAYKAFFNDLDTGIAKIREYQKANPDIESFAKFDILMPQGKRTFSEWIRFANSLRLRLAVRIAMADSKLAVAEAQKALTDEEGLLEGNDEVVAVSTSSGYTNPFGEINKAWGEVFMNANMESLLVGYEDPRMEKYFDKATGSDATSLIDYKGTYKGIRQGTGFSHKNYNGHSKSTITQQTDAVLMTPAEVWFLRAEAALRGWSSESVKDCYEKGVKASFAQWGAAGAEAYLESDRKPSDYVDAFKAANNVKAVNTLTPKWDDAAGNEDKLGRIITQKWLAMFPEGGEAWAEQRRTGYPRLFPVLVNQSEGTVDTNLGPRRLNFFVGIKTTNPEQYTQLVNALGGIDNCGTRLWWDTGRNF,glycan array binding signal (z-score),[1],-0.676
same,glycan array binding signal (z-score),[2],-0.624
same,glycan array binding signal (z-score),[3],0.733
same,glycan array binding signal (z-score),[4],-0.715
same,glycan array binding signal (z-score),[5],-0.696
same,glycan array binding signal (z-score),[6],0.075
same,glycan array binding signal (z-score),[7],1.11
same,glycan array binding signal (z-score),[8],-0.676
same,glycan array binding signal (z-score),[9],-0.645
same,glycan array binding signal (z-score),[10],-0.539
same,glycan array binding signal (z-score),[11],2.93
same,glycan array binding signal (z-score),[12],1.08
same,glycan array binding signal (z-score),[13],-0.699
same,glycan array binding signal (z-score),[14],-0.415
same,glycan array binding signal (z-score),[15],-0.67
same,glycan array binding signal (z-score),[16],-0.695
same,glycan array binding signal (z-score),[17],-0.718
same,glycan array binding signal (z-score),[18],-0.392
same,glycan array binding signal (z-score),[19],-0.705
same,glycan array binding signal (z-score),[20],-0.681
same,glycan array binding signal (z-score),[21],-0.692
same,glycan array binding signal (z-score),[22],-0.662
same,glycan array binding signal (z-score),[23],-0.632
same,glycan array binding signal (z-score),[24],-0.501
same,glycan array binding signal (z-score),[25],-0.682
same,glycan array binding signal (z-score),[26],0.238
same,glycan array binding signal (z-score),[27],-0.59
same,glycan array binding signal (z-score),[28],-0.696
same,glycan array binding signal (z-score),[29],-0.206
same,glycan array binding signal (z-score),[30],-0.401
same,glycan array binding signal (z-score),[31],1.98

# Reference: the supplement of paper PMC8728848
